Experimental data from the supplement of paper PMC3334620.
Over roughly 33,000 sequences, “E-score (-0.5 to 0.5)” has its median near -0.035; the highest 2% begin near 0.35. This is one part of the list.

The sequences below were run against T1, Pdr3 (UniProt P33200) (assay: PBM E-score (8-mer binding enrichment) (E-score (-0.5 to 0.5)); higher = stronger / more preferred TF binding; most listed sequences are background and not binding sites). Conditions: protein concentration: 200 nM; construct: GST-full length.
T1 sequence: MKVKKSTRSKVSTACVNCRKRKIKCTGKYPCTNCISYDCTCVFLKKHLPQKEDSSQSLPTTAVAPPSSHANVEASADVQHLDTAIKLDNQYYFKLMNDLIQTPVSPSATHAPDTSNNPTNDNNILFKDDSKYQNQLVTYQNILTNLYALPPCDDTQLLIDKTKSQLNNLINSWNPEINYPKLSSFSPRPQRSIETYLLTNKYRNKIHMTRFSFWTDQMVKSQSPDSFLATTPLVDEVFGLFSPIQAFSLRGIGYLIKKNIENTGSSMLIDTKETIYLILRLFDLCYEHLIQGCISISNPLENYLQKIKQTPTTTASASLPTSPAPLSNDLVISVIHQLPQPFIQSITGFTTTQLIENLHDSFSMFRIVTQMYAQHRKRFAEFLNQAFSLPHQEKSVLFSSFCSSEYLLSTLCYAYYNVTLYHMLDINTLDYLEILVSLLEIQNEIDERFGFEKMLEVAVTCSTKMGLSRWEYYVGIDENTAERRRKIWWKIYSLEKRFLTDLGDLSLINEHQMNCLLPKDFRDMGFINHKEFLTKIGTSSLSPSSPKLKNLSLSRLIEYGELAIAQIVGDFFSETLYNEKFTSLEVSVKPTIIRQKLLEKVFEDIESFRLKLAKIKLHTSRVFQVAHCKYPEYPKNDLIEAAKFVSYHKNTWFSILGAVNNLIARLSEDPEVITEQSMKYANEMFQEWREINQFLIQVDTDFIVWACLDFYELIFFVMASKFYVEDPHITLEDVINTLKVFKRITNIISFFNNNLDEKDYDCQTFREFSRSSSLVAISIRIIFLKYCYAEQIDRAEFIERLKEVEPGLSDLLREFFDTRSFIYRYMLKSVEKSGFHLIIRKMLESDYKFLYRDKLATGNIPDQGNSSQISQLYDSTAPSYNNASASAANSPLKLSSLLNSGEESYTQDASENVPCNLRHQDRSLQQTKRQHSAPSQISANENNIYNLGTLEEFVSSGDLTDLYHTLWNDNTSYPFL
Summary of the method: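 GST-tagged yeast TFs (full-length or DNA-binding domain) were made by PURExpress in vitro transcription/translation and applied at about 100-200 nM to universal all-10-mer Agilent arrays. The arrays were made double-stranded by primer extension, on fresh or once-stripped slides. Bound protein was detected with fluorescent anti-GST, and scans were normalised with masliner. Each ungapped eight-base word, pooled with its reverse complement, received an E-score (modified Wilcoxon-Mann-Whitney statistic) from the Universal PBM Analysis Suite.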

Sequence | PBM E-score
GCCGCTAA | 0.123
AGCTGTAC | 0.0207
ATTCATGG | -0.0272
CAATTCTA | -0.33
ACCTGCAA | -0.184
CGCCAAGA | -0.0296
ATACATGA | -0.112
CCCATGGA | -0.0126
CATTGAAA | -0.087
GCACCACA | 0.00291
TAACGAGA | -0.126
AGCACCAG | -0.207
CCGCCTCC | 0.128
AAGTTCTA | -0.0203
CGACCTTA | -0.0108
AATAGGTA | -0.179
AAAACCAT | -0.153
AGATGTGC | -0.039
TTATTGAA | -0.179
CGGTGGCA | 0.0244
AAGGACGG | 0.0563
ACAAGCAA | -0.144
CCGTTCCG | 0.477
CGATGTAC | -0.0342
CTAAGCGC | -0.166

Sequence | PBM E-score
CAGCCTGC | -0.341
CAGATTAA | 0.0912
AACCGTAA | -0.0242
GTCTGAAA | -0.00329
ACCCCAGA | -0.172
AGCTGCCG | 0.104
AGACCCAG | -0.108
GTCTACAA | -0.284
ACCCGCCA | 0.0368
CTCGGACC | 0.359
GAATAATC | 0.0628
AGATTAAT | 0.00312
CCCACGGA | 0.424
AAGGGTGT | -0.0354
ATGGTACG | -0.0722
GGTCTCAC | -0.0581
AATACGGA | 0.351
GGCGCCTA | -0.0415
CTTTGTTC | 0.219
AACGAGAG | 0.0146
TAGAGCTA | -0.304
CATGATAG | -0.135
CAAAGCGA | -0.119
CCTTGCTC | -0.0469
CGAACTTC | -0.0354

Sequence | PBM E-score
AATTCGTG | 0.0172
ATGCACAC | 0.0155
ACCGCGCC | 0.128
AGTGAACC | 0.116
CACGAAAG | -0.0162
GTCTTAAA | -0.161
CATACGTC | -0.234
GACTGTCA | -0.104
CAAGGGAA | -0.144
CTTTAATC | -0.0298
CAGAAGTC | -0.203
TATAGCAA | -0.0593
CGCCGGAA | 0.45
AACCTTGA | -0.00866
ACCGGCCT | 0.0753
CTGTCCCC | -0.0565
GACACCAA | 0.0643
ATAATCTA | 0.0572
GGCGTCCC | 0.00409
CGCCCTAA | -0.138
CAGCCAGC | -0.164
ATAAGACC | -0.0803
CAGAGCAA | -0.0115
CCGGAACC | 0.476
CATGACTC | -0.343

Sequence | PBM E-score
CTGGTGCA | -0.256
GATTATAC | 0.183
AAGCCAGG | -0.149
ATCCCCGC | 0.353
CTACTCGC | 0.0561
TGCTGCAA | -0.153
CCGACCAG | 0.102
ATAGGTGA | -0.188
AAATCTAT | -0.00749
GCCCATAC | -0.104
TGGCGGAA | 0.359
TCCCCCAA | -0.313
ACCGGAAA | 0.405
GGATTTAA | 0.147
CTGTGATC | 0.0396
AGATGCTG | -0.117
GCGTGCCC | -0.0178
GAAAGGTA | -0.0117
CTATCAAA | 0.048
CTCCGGGC | 0.236
CCCCGAGC | 0.0663
TCAAGCCA | -0.171
GCAGCTGC | 0.219
TCGGCGCA | 0.181
AAAAACCC | -0.0297

Sequence | PBM E-score
CTAGTGTA | -0.262
GATGCTCC | 0.232
CCTACGAG | -0.131
CCTAGAGA | -0.218
GGGCGCCA | 0.195
CCACCCTA | -0.0335
CCATTTCG | -0.0848
GACTCGGA | 0.39
GGTCTGAC | 0.00827
CTGTCCAA | -0.128
CTTACTTC | 0.082
CGAAAGTA | -0.14
CACCTGGA | -0.147
TCTTGTAA | 0.0172
CTCGGTTA | 0.0885
ACGGAAGG | 0.397
AACATAAC | 0.0669
CCGATTAG | 0.157
ATCCTGGG | -0.104
CCATTTAG | -0.0489
ACGCTCAT | -0.0439
CGCTACGC | -0.119
AAAGGGAC | -0.174
ATTTCGGG | 0.139
GGTCTGCA | 0.0109

Sequence | PBM E-score
CCTAGTGA | -0.0249
ATTCAGAC | -0.166
CTAAAGGC | -0.185
CGTTTTTA | 0.0102
GGGCATAC | -0.0177
CTCTGTCA | -0.272
ACTCGACA | 0.0576
CTTTATAA | -0.237
ACTGGTAT | -0.0793
ACCGGGTC | 0.184
CTACGATC | -0.166
CGGCGTAG | -0.0134
ACATTTAC | -0.0786
ACAATTGC | -0.0946
TTCGGCAA | -0.0284
CAGATGCG | -0.126
GTTTCATA | -0.00289
CGCAACGA | 0.0402
ATTTCAGA | -0.0196
AACTTCGG | 0.195
CGTTCCAA | -0.0612
TAAGAAAA | 0.0179
GTTGAACA | -0.189
GGTCCCCA | -0.0977
AGCCCTCA | -0.248

Sequence | PBM E-score
GCCCGTAC | -0.0513
CCACAAAC | 0.134
CTCAAAAA | -0.0515
AAACTAGG | -0.129
TACGTAGA | -0.178
ACAGCTCA | -0.137
CATTCCGC | 0.421
ATAGACAG | -0.161
GGATATAC | 0.175
CAGCTCAA | 0.0732
ATTTGGCC | 0.14
AACGCCTT | 0.0867
ATCATAAT | 0.0348
CGGCGTTA | 0.184
CTCGGTTC | -0.0143
AAGTATTC | 0.00329
AGAGTGCT | -0.14
CGGCGTGA | 0.248
CCTACCAA | -0.0566
AGGGTGCA | -0.0818
CCCTGCGA | -0.184
CGTCGCAA | 0.0832
